# In ChEMBL document CHEMBL5606458, “ASAP - ZIKV NS2B-NS3 protease fluorescence single point” (2024):
# About 160 (5.9%) of roughly 2,700 compounds showed an effect of 50% or more. Some of the results follow.
# Molecular target: Nonstructural protein 3 (Zika virus) (UniProt A0A024AXB9)
# [1] = PRVABC59, Concentration 15.0 uM, Number of replicates 1.0
# [2] = PRVABC59, Concentration 50.0 uM, Number of replicates 1.0
# Chain of UniProt A0A024AXB9 (A0A024AXB9 as listed by the source): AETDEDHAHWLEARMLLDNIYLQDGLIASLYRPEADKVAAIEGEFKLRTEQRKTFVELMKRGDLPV
compound,measurement,setting,value
CCn1ncc(-c2nn(C)cc2NC(=O)c2ccccc2C(F)(F)F)c1F,inhibition,"PRVABC59, Concentration 49.5 uM, Number of replicates 2.0, Standard deviation 0.5750886903093277 %",-2.16%
same,inhibition,"PRVABC59, Concentration 99.01 uM, Number of replicates 2.0, Standard deviation 1.5049834176965216 %",-1.48%
same,inhibition,"PRVABC59, Concentration 198.0 uM, Number of replicates 2.0, Standard deviation 0.7449247690337362 %",-1.24%
C[C@H](NC(=O)c1cc(Cl)ccc1NS(=O)(=O)c1ccc(Oc2ccccc2Cl)cc1)c1ccc(Cl)cc1Cl,inhibition,[1],38.5%
CC(C)(C)c1ccc(O)c(NC(=O)c2cc(Cl)ccc2NS(=O)(=O)c2ccc(Oc3ccccc3Cl)cc2)c1,inhibition,[1],48.6%
O=Cc1ccc(N2CCC(C(=O)NCc3ccc(F)c(Br)c3)CC2)cc1,inhibition,"PRVABC59, Concentration 10.0 uM, Number of replicates 1.0",1.29%
CC(C)N(C[C@H](O)COc1ccc(CC(N)=O)cc1)C(=O)c1cc(Cl)ccc1NS(=O)(=O)c1ccc(Oc2ccccc2Cl)cc1,inhibition,[1],13.1%
O=C(NCC1(N2CCOCC2)CCCCC1)c1cc(Cl)ccc1NS(=O)(=O)c1ccc(Oc2ccccc2Cl)cc1,inhibition,[1],20.2%
CC(C)N(CCN1CCCCCC1)C(=O)c1cc(Cl)ccc1NS(=O)(=O)c1ccc(Oc2ccccc2Cl)cc1,inhibition,[1],15.1%
CCCCCC(=O)N[C@H](C(=O)N1CCC(N)CC1)c1ccc(OCc2ccccc2)cc1,inhibition,"PRVABC59, Concentration 49.5 uM, Number of replicates 2.0, Standard deviation 0.44946257928201355 %",-0.332%
same,inhibition,"PRVABC59, Concentration 99.01 uM, Number of replicates 2.0, Standard deviation 0.4944088326662578 %",1.84%
same,inhibition,"PRVABC59, Concentration 198.0 uM, Number of replicates 2.0, Standard deviation 0.19204329535164696 %",7.09%
O=C(N[C@@H](CC(=O)N1CCn2c(nnc2C(F)(F)F)C1)Cc1cc(F)c(F)cc1F)c1cc(Cl)ccc1NS(=O)(=O)c1ccc(Oc2ccccc2Cl)cc1,inhibition,[1],18.3%
O=C(Nc1cccc(I)c1)c1cc(Cl)ccc1NS(=O)(=O)c1ccc(Oc2ccccc2Cl)cc1,inhibition,[1],48.1%
O=Cc1ccc(N2CCC(C(=O)N3CCN(C(=O)N4CCCCC4)CC3)CC2)cc1,inhibition,[2],20.3%
Cc1ccc(C(=O)N2CCC(NC(=O)C3CCN(c4ccc(C=O)cc4)CC3)CC2)cc1,inhibition,[2],25.4%
CSCC[C@H](NC(=O)OC(C)(C)C)C(=O)N1CCC[C@H]1C(=O)Nc1ccc2c(c1)B(O)OC2,inhibition,"PRVABC59, Concentration 49.5 uM, Number of replicates 2.0, Standard deviation 2.1516825960521024 %",-5.65%
same,inhibition,"PRVABC59, Concentration 99.01 uM, Number of replicates 2.0, Standard deviation 1.7183871994888231 %",-4.38%
same,inhibition,"PRVABC59, Concentration 198.0 uM, Number of replicates 2.0, Standard deviation 1.3041143615324509 %",-3.13%
C[C@H](NC(=O)c1cc(Cl)ccc1NS(=O)(=O)c1ccc(Oc2ccccc2Cl)cc1)c1ccc([N+](=O)[O-])cc1,inhibition,[1],45.5%
Cc1cc(Br)c(Cl)cc1NC(=O)C1CCN(c2ccc(C=O)cc2)CC1,inhibition,[2],26.8%
Cc1c(C2CCNCC2)cnn1Cc1nnc(-c2ccccc2)o1,inhibition,"PRVABC59, Concentration 49.5 uM, Number of replicates 2.0, Standard deviation 1.8004573341502979 %",-1.03%
same,inhibition,"PRVABC59, Concentration 99.01 uM, Number of replicates 2.0, Standard deviation 1.9693745062100474 %",-0.513%
same,inhibition,"PRVABC59, Concentration 198.0 uM, Number of replicates 2.0, Standard deviation 0.29610171483577025 %",-0.535%
Cc1c(C(=O)NCCn2cnnn2)ccc(O)c1NC(=O)c1ccncc1F,inhibition,"PRVABC59, Concentration 49.5 uM, Number of replicates 2.0, Standard deviation 1.9093792681449115 %",-0.69%
same,inhibition,"PRVABC59, Concentration 99.01 uM, Number of replicates 2.0, Standard deviation 1.3658628031285187 %",-1.37%
same,inhibition,"PRVABC59, Concentration 198.0 uM, Number of replicates 2.0, Standard deviation 0.6788903933391712 %",1.16%
Cc1cc(CO)c2cccc(NC(=O)[C@@H](N)c3ccsc3)c2n1,inhibition,"PRVABC59, Concentration 49.95 uM, Number of replicates 2.0, Standard deviation 2.8402698834155693 %",0.802%
same,inhibition,"PRVABC59, Concentration 99.9 uM, Number of replicates 2.0, Standard deviation 3.07612314192035 %",11%
C[C@H]1CCC[C@H](C)N1CCNC(=O)C1CCN(c2ccc(C=O)cc2)CC1,inhibition,[2],22.2%
Cc1cc(CO)c2cccc(Cc3cccc(C(=O)NCc4ccc(S(N)(=O)=O)cc4)c3)c2n1,inhibition,"PRVABC59, Concentration 99.9 uM, Number of replicates 2.0, Standard deviation 3.240458087536571 %",-8.63%
Cc1c(Br)cnc(NC(=O)c2cc(Cl)ccc2NS(=O)(=O)c2ccc(Oc3ccccc3Cl)cc2)c1[N+](=O)[O-],inhibition,[1],23.1%
CN(Cc1nc2ccsc2c(=O)[nH]1)C(=O)c1cc(Cl)ccc1NS(=O)(=O)c1ccc(Oc2ccccc2Cl)cc1,inhibition,[1],11.9%
Cc1cc(CO)c2cccc(Cc3cccc(NC(=O)c4cc(C(F)F)nn4C)c3)c2n1,inhibition,"PRVABC59, Concentration 49.95 uM, Number of replicates 2.0, Standard deviation 0.2559254422270031 %",-3.59%
same,inhibition,"PRVABC59, Concentration 99.9 uM, Number of replicates 2.0, Standard deviation 0.34625197592436774 %",0.543%
c1ccc2c([C@H]3CCN(Cc4c[nH]cn4)C3)c[nH]c2c1,inhibition,"PRVABC59, Concentration 49.5 uM, Number of replicates 2.0, Standard deviation 3.7580470125342442 %",0.152%
same,inhibition,"PRVABC59, Concentration 99.01 uM, Number of replicates 2.0, Standard deviation 3.2719105104126136 %",3.08%
same,inhibition,"PRVABC59, Concentration 198.0 uM, Number of replicates 2.0, Standard deviation 2.8090237272161387 %",8.45%
Cc1cnccc1NC(=O)c1cc(C2CC2)n(C)n1,inhibition,"PRVABC59, Concentration 49.5 uM, Number of replicates 2.0, Standard deviation 2.9772917324416994 %",1.35%
same,inhibition,"PRVABC59, Concentration 99.01 uM, Number of replicates 2.0, Standard deviation 3.181871776470306 %",0.048%
same,inhibition,"PRVABC59, Concentration 198.0 uM, Number of replicates 2.0, Standard deviation 2.365728105759831 %",-2.14%
O=Cc1ccc(N2CCC(C(=O)N3CCN(c4ccccc4O)CC3)CC2)cc1,inhibition,[2],27.4%
Cc1cc(CO)c2cccc(N3CCCNCC3)c2n1,inhibition,"PRVABC59, Concentration 49.95 uM, Number of replicates 2.0, Standard deviation 0.43156080086596493 %",-8.47%
same,inhibition,"PRVABC59, Concentration 99.9 uM, Number of replicates 2.0, Standard deviation 1.696132820538101 %",-9.37%
O=C(Nc1ccc(C(F)(F)F)cc1)c1cc(Cl)ccc1NS(=O)(=O)c1ccc(Oc2ccccc2Cl)cc1,inhibition,[1],26.8%
Cc1cc(CO)c2cccc(Cc3cccc(NC(=O)CCC4CCNCC4)c3)c2n1,inhibition,"PRVABC59, Concentration 49.95 uM, Number of replicates 2.0, Standard deviation 0.07125447361688171 %",70.2%
same,inhibition,"PRVABC59, Concentration 99.9 uM, Number of replicates 2.0, Standard deviation 0.2799306012648679 %",94.6%
O=C(NC1CCN(Cc2ccccc2F)CC1)c1cc(Cl)ccc1NS(=O)(=O)c1ccc(Oc2ccccc2Cl)cc1,inhibition,[1],19.2%
CC(C)(CC(=O)Nc1cccc(CN)c1)NC(=O)OCc1ccccc1,inhibition,"PRVABC59, Concentration 49.5 uM, Number of replicates 2.0, Standard deviation 1.9183842373572035 %",-0.42%
same,inhibition,"PRVABC59, Concentration 99.01 uM, Number of replicates 2.0, Standard deviation 0.3162171833714132 %",2.76%
same,inhibition,"PRVABC59, Concentration 198.0 uM, Number of replicates 2.0, Standard deviation 0.9637096075628176 %",7.5%
O=Cc1ccc(N2CCC(C(=O)N3CCC[C@H](C(F)(F)F)C3)CC2)cc1,inhibition,[2],30.7%
O=C(NCc1c(F)ccc(F)c1F)c1cc(Cl)ccc1NS(=O)(=O)c1ccc(Oc2ccccc2Cl)cc1,inhibition,[1],37.4%
Cc1cc(CO)c2cccc(Cc3ccccc3NC(=O)C[C@H]3CCCN3)c2n1,inhibition,"PRVABC59, Concentration 99.9 uM, Number of replicates 1.0",-6.9%
CC(=O)N1CCC(N(C)C(=O)c2cc(Cl)ccc2NS(=O)(=O)c2ccc(Oc3ccccc3Cl)cc2)CC1,inhibition,[1],11.3%
O=C(Nc1ccccc1Sc1ccccc1)c1cc(Cl)ccc1NS(=O)(=O)c1ccc(Oc2ccccc2Cl)cc1,inhibition,[1],25.8%
O=C(Nc1ccc2nccnc2c1Br)c1cc(Cl)ccc1NS(=O)(=O)c1ccc(Oc2ccccc2Cl)cc1,inhibition,[1],26.7%
COc1cc(C(=O)N(C)C)nc(N2CCNCC2)n1,inhibition,"PRVABC59, Concentration 49.5 uM, Number of replicates 2.0, Standard deviation 1.8847476383507809 %",-3.23%
same,inhibition,"PRVABC59, Concentration 99.01 uM, Number of replicates 2.0, Standard deviation 2.7378897935859983 %",-4.42%
same,inhibition,"PRVABC59, Concentration 198.0 uM, Number of replicates 2.0, Standard deviation 3.521387569111147 %",-4.08%
NC(=O)C1(N2CCCCC2)CCN(C(=O)c2cc(Cl)ccc2NS(=O)(=O)c2ccc(Oc3ccccc3Cl)cc2)CC1,inhibition,[1],8.91%
